# Assay results published in PubChem BioAssay AID445 (National Center for Advancing Translational Sciences (NCATS), 2006).
# Screen size: about 110,000 compounds; about 40 (0.04%) were called active. Inconclusive results, whose numbers are uncertain, are shown with a selection of clear calls. The call rests on the fitted dose curve; in most records, active means well fitted curve in the direction sought with a large enough effect in the signal ratio (not every such curve was filed as active); inconclusive means small, poorly fitted or top-dose-only effect, or a change in a side signal; inactive means flat fitted curve, though single readings scatter; the % refers to the signal ratio. Potencies beside an inconclusive call are fits to weak or partial responses and may not hold up.
# Assay: IkB Signaling;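 on IkBa stabilization activation: 0% = basal untreated cells and 100% = reference inhibitor full response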
# Conditions: ABC-DLBCL IkBa-CBG/CBR dual luciferase ratio (green luciferase fused to IkBa over red control in OCI-Ly3 lymphoma cells), 4 h; IkBa stabilization activation: at 57.1 µM (top of the series), scaled: untreated 0%, proteasome inhibitor 100% unless noted
# Summary of the method: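 Curves were fitted separately to fusion (green), unfused (red) and ratio luminescence, then classed by r2, magnitude and activity. Cells: OCI-Ly3, 4 h compound plus doxycycline at 37C; 10 uM MG-132 defined full response.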
# Potency means the concentration at half of the fitted maximal effect.
Compound,IkBa stabilization activation,Potency
C[C@@H](Cc1ccccc1)Nc1ncnc2c1ncn2[C@@H]1O[C@@H](CO)[C@H](O)[C@@H]1O,inconclusive: 8.62% [signal activator],–
COc1ccc(NC(=O)c2cnc3cc(C)ccn3c2=O)c(OC)c1,inactive: -0.791%,–
COc1ccc(Cn2c(=O)n(-c3ccc(C)cc3)c(=O)c3c2c2cc(C)ccc2n3C)cc1,inactive: -0.42%,–
CCOC(=O)c1c(C)oc2ccc(N(C(=O)c3ccncc3)S(=O)(=O)c3ccc(F)cc3C)cc12,inconclusive: 12.6% [signal inhibitor],–
COc1cccc(NC(=O)CSc2nnc(-c3ccc(C)cc3)o2)c1,inactive: 11.2%,–
CC(C)CCNC(=O)CCCn1c(=O)c2cccn2c2ccccc21,inconclusive: 3% [signal inhibitor],–
Cc1cccc(CS(=O)(=O)Cc2ccc(C(=O)NCc3ccc(F)cc3)o2)c1,inconclusive: 1.25% [signal inhibitor],–
COc1ccccc1N1CCN(S(=O)(=O)c2cc(C(=O)Nc3ccc(Oc4ccccc4)cc3)ccc2F)CC1,inconclusive: -2.17% [signal inhibitor],–
COc1cccc(NC(=O)c2cnc(SCC(=O)N3CCCc4ccccc43)n(C)c2=O)c1,–,"inconclusive: 12.6 µM [rising, partial curve]"
COC(=O)c1ccccc1NC(=O)c1cc(OC)cc(OC)c1,inconclusive: 7.2% [signal inhibitor],–
CCN(C(=O)c1cc2c(=O)oc3ccccc3c2s1)c1ccccc1F,inactive: 0.465%,–
CCc1ccccc1-n1c(SCC(=O)Nc2ccc(C)cc2)nc2n[nH]c(C)c2c1=N,inconclusive: -0.143% [signal inhibitor],–
O=C1Nc2ccccc2C12OCC(COc1ccc(Cl)cc1)O2 (stereo not given),inconclusive: 9.25% [signal inhibitor],–
CSc1ccc(C2C(C#N)=C(N)N(c3ccccc3)C3=C2C(=O)CCC3)cc1 (stereo not given),inactive: -0.893%,–
CCc1cccc(NC(=O)Cn2c(-c3ccc(F)cc3)cc(C(C)=O)c2C)c1,inconclusive: -0.534% [signal inhibitor],–
O=C(c1ccc2c(c1)N(Cc1ccccc1Cl)C(=O)c1ccccc1S2)N1CCCC1,inconclusive: -4.29% [signal inhibitor],–
Cc1cc(C(=O)Nc2sc(C)c(-c3ccc(F)cc3)c2C(N)=O)no1,inactive: -0.23%,–
CC(C)(C)c1csc(NC(=O)c2ccc(Cl)s2)n1,inconclusive: -1.27% [signal inhibitor],–
Cc1ccccc1CNC(=O)CN1CCSc2ccccc21,inconclusive: 6.55% [signal inhibitor],–
COc1ccc(NC(=O)CN2CCCN(Cc3ccccc3)S2(=O)=O)cc1,inconclusive: 1.31% [signal inhibitor],–
Cc1ccc(NC(=O)C2CCN(S(=O)(=O)c3ccc4c(c3)CCCC(=O)N4)CC2)c(Br)c1,inconclusive: 5.73% [signal inhibitor],–
O=C(CN(CCc1ccccc1)C(=O)Cn1nnc(-c2cccs2)n1)NCc1ccco1,inactive: 0.477%,–
CCCCOC(=O)c1ccc(NC(=O)c2ccc3c(c2)CCCN3S(C)(=O)=O)cc1,inconclusive: 7.42% [signal inhibitor],–

Compound,IkBa stabilization activation,Potency
O=C(CSc1nc2ccccc2nc1Cc1ccc(Cl)cc1)N1CCCCC1,inactive: 0.911%,–
Cc1cc(=O)n2nc(N3CCC(C(=O)NCCCOC(C)C)CC3)sc2n1,inactive: 1.09%,–
CC(C)COc1ccc(-c2nnc(-c3ccco3)o2)cc1,inconclusive: 13.8% [signal inhibitor],–
Cc1cccn2c(=O)c3cc(C(=O)N4c5ccccc5CC4C)n(C)c3nc12 (stereo not given),inactive: -1.11%,–
O=C(CSc1nnc(CNC(=O)c2ccccc2)n1-c1ccc(F)cc1)Nc1ccccc1F,inconclusive: 0.244% [signal inhibitor],–
C/C(Cl)=C/Cn1c(SC(C)C)nc2c1c(=O)[nH]c(=O)n2C,inactive: -0.65%,–
CCCCOc1ccc(C(=O)Nc2sc3c(c2C(=O)OCC)CCCCC3)cc1,inconclusive: 5.62% [signal inhibitor],–
Cc1nc(C)n(CC(O)COc2ccc3cc(Br)ccc3c2)n1 (stereo not given),inconclusive: 3.98% [signal inhibitor],–
COc1ccc(Nc2ncc(C(=O)Nc3ccc(F)cc3F)c3ccccc23)cc1,inconclusive: 2.19% [signal inhibitor],–
CCN(CC)C(=O)Cn1cc(SCC(=O)Nc2cc(OC)ccc2OC)c2ccccc21,inconclusive: 5.65% [signal inhibitor],–
CC1(C)Cc2cccc(OCC(=O)Nc3ccccc3N3CCOCC3)c2O1,inconclusive: 2.59% [signal inhibitor],–
O=C(Nc1cccc(F)c1)c1ccc(S(=O)(=O)N2CCCC2)cc1,inconclusive: 9.77% [signal inhibitor],–
COc1ccc(Oc2ncc3nc(-c4cccs4)c(=O)n(Cc4cccs4)c3n2)cc1,"inactive: 1.89% [at 11.4 µM, scaled: untreated 0%, proteasome inhibitor 100%]",–
CCC(CC)C(=O)Nc1ccc2nc(SCC(=O)N3CCOCC3)sc2c1,inconclusive: 1.37% [signal inhibitor],–
Cc1ccccc1C(=O)Nc1sc2c(c1C(=O)N1CCCCC1)CCC(C(C)(C)C)C2 (stereo not given),inconclusive: 9.16% [signal inhibitor],–
O=C(NCc1ccc(Cl)cc1)C1CCN(S(=O)(=O)c2ccc(F)cc2)CC1,inconclusive: 3.2% [signal inhibitor],–
O=C(Cn1ccc2ccccc2c1=O)N1CCN(Cc2ccc3c(c2)OCO3)CC1,inactive: 0.799%,–
COc1ccccc1NC(=O)CSc1nnc(Cc2cc(=O)[nH]c(=O)[nH]2)n1-c1ccccc1,inconclusive: 9.11% [signal inhibitor],–
O=C(CSc1nnnn1-c1ccc(Cl)cc1)NC(=O)Nc1ccc2c(c1)OCCO2,inactive: 0.749%,–
CCC1CCCCN1S(=O)(=O)c1ccc2c(c1)CCN2C(=O)C1CCC1 (stereo not given),inconclusive: 2.73% [signal inhibitor],–
COc1ccccc1N1CCN(c2ncc3c(n2)CCN(Cc2ccc(C)s2)C3)CC1,inconclusive: 6.23% [signal inhibitor],–
O=C(Nc1nc(-c2ccccn2)cs1)c1ccc(S(=O)(=O)N2CCCCC2)cc1,inconclusive: 4.39% [signal inhibitor],–
